Laboratory results reported in patent US20090324624A1, “Chitin micro-particles as an adjuvant” (priority 2006, published 2009).

Columns and labels:
RAW 264.7 cells [1] = assay: MØ viability after MBCD (trypan blue, LDH release); settings: MBCD at 5 mM or less
Protocol: (§1) For all experiments testing MAPK activation, MØ were incubated in serum-free RPMI 1640 at 37° C. for 2 h to achieve serum starvation prior to MBCD treatment. To deplete cholesterol, MØ were incubated with 0 (saline), 1 or 5 mM MBCD at 37° C. for 1 h, prior to chitin particle stimulation. Cell viability was determined by trypan blue exclusion and lactate dehydrogenase (LDH) release according to the manufacturer's instructions (Cytotoxity Colorimetric Assay Kit, Oxford Biomedical Research, Oxford, Mich.).

RAW 264.7 cells [2] = assay: Cellular cholesterol level after MBCD; settings: 5 mM MBCD, with or without 5% heat-inactivated FBS
Protocol: as §1
Cholesterol was extracted from cell pellets (10^6 cells) with methanol/chloroform (2:1), followed by addition of an equal volume of chloroform/water (1:1). Cholesterol was recovered from the chloroform layer by lyophilization. Extracted lipids were dissolved in the buffer for Cholesterol E test (Wako Bioproducts, Richmond, Va.) and cholesterol in the extract was determined by enzymatic colorimetric assay, according to the manufacturer's instructions. Cellular protein was measured, as described previously and cholesterol levels were normalized to the protein levels. Normalized cholesterol levels of saline-treated MØ were considered as 100%.

Substance: methyl-β-cyclodextrin [MBCD]
- cell viability at 24 h (RAW 264.7 cells [1]): did not reduce cell viability
- cellular cholesterol levels, % of that present prior to treatment (RAW 264.7 cells [2]): 40-45%
